Experimental data taken from publication PMC6919601, “Identification of Plasmodium dipeptidyl aminopeptidase allosteric inhibitors by high throughput screening” (PLoS ONE, 2019).
The campaign covered roughly 110,000 compounds. About 230 (0.21%) showed an effect of 50% or more. The list shows a part of the results.

target: DPAP1 (Plasmodium falciparum, UniProt Q8IIJ9); test: primary screen, percent inhibition; read by cleavage of a fluorogenic dipeptide substrate; higher = more effect of the substance; parameters: species or system P. falciparum D10 trophozoite lysates; single well
Sequence (Q8IIJ9 whole entry, looked up): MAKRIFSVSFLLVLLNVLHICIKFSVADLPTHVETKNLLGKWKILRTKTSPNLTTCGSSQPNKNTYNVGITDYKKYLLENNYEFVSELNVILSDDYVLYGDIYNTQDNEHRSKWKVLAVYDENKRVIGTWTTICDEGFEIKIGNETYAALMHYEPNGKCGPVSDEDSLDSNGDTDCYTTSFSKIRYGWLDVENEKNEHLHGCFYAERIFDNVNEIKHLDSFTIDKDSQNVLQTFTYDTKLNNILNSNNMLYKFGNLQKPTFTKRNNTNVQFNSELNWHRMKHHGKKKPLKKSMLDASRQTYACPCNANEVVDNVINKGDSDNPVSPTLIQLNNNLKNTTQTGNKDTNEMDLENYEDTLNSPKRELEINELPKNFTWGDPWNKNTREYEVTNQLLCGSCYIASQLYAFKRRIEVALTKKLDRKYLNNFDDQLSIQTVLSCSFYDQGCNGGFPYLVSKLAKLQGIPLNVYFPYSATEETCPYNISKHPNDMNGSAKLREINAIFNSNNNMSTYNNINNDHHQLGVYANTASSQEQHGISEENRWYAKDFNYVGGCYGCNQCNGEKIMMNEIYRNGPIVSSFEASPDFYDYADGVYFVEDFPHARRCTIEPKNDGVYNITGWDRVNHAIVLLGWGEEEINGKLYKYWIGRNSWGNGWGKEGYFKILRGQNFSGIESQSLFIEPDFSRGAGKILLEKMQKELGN
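Also: 30 min substrate incubation versus DMSO and 10 µM JCP410 controls.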

Row | Structure (SMILES) | % Inhibition @ 10 uM [%]
1 | CC1CCN(S(=O)(=O)c2nnc(NC(=O)COc3ccccc3F)s2)CC1 | -3.74
2 | OCCN(CCc1ccccc1)Cc1ccccc1 | -7.93
3 | CCC(C)NC(=O)COCc1cc(-c2ccco2)on1 (centres unmarked) | -9.49
4 | Cc1oc(-c2cccs2)[n+]([O-])c1C | -3.18
5 | CCN1CCN(c2nc3c(c(=O)n(C)c(=O)n3C)n2Cc2cc(OC)ccc2Cl)CC1 | 0.248
6 | CC(=O)c1ccccc1OCCCN1CCN(C)CC1 | -4.02
7 | CCOC(=O)N1CCN(C(=O)Cn2cnc3c(nnn3-c3ccc(C)cc3)c2=O)CC1 | -0.431
8 | COc1ccc(N2C(N)=C(C#N)C(c3ccc4c(c3)OCO4)C3=C2CC(C)(C)CC3=O)c(OC)c1 (centres unmarked) | 2.69
9 | CCOC(=O)c1c(N)sc2c1CCN(C(=O)OCC)C2 | -1.66
10 | COc1ccccc1/C(O)=C/c1nc2ccc(Cl)cc2nc1O | -3.41
11 | CC(C)c1ccc(NC(=O)CN(CCc2ccccc2)S(C)(=O)=O)cc1 | 1.88
12 | c1ccc(CCc2nc(-c3cccnc3)no2)cc1 | 0.884
13 | CC1=C(C(=O)Nc2ccccc2)C(c2cccs2)C(C#N)=C(SCC(=O)Nc2ccccc2)N1 (centres unmarked) | 0.76
14 | COc1ccc2c(c1)c(=O)oc1c(C)c(OC(C(=O)O)c3ccccc3)ccc12 (centres unmarked) | 36.4
15 | Nc1n[nH]c(SCC(=O)Nc2nsc(-c3ccc(Cl)cc3)n2)n1 | -2.75
16 | CCOc1ccc(-c2cc(C(=O)OC)on2)cc1 | 17.4
17 | Clc1ccc2c(c1)C(C1=NCCN1)c1ccccc1CS2 (centres unmarked) | 4.44
18 | O=C(Nc1cccc(NC(=O)C2CC2)n1)C1CC1 | 3.26
19 | COc1ccccc1-c1cc(C(F)(F)F)nc(S(=O)(=O)CCCC(=O)ON=C2CCCCC2)n1 | 12.3
20 | CC(C)(C)c1ccc(S(=O)(=O)N2CCN(CCC#N)CC2)cc1 | 1.62
21 | Cc1cc(C)c(S(=O)(=O)/N=C2/C=C(Br)C(=O)c3ccccc32)c(C)c1 | 3.54
22 | Fc1c(F)c(F)c2nc3onc(-c4ccccc4)c3cc2c1F | -1.61

Row | Structure (SMILES) | % Inhibition @ 10 uM [%]
23 | Cc1sc(NC(=O)c2ccccc2)c(CN2CCN(CCO)CC2)c1C | -4.66
24 | Cc1cccc(NC(=O)Nc2sc3c(c2C(N)=O)CCCC3)c1 | -2.82
25 | Cc1cnc(-c2ccc(C(=O)O)cc2)nc1 | -6.44
26 | Cc1ccn2cc(-c3ccccc3)cc2c1 | 1.72
27 | CCC(NC(=O)COc1ccccc1Cl)c1ccccc1 (centres unmarked) | 0.161
28 | CCS(=O)(=O)c1cc([N+](=O)[O-])c(Sc2ccccc2N)s1 | 6.43
29 | CCOC(=O)c1cnc2c(OC)cccc2c1NCCC1=CCCCC1 | 15.5
30 | COc1cc(OC)cc(C(=O)Nc2cccc(Oc3ccc(C(=O)O)c(C(=O)O)c3)c2)c1 | -4.52
31 | COc1ccc(-c2cc(C(F)(F)F)nc(SCC(=O)NCc3cn(C)nc3C)n2)cc1OC | 4.64
32 | Cc1c(CCC(=O)NCc2ccccc2Cl)c(=O)oc2c(C)c(O)ccc12 | 4.13
33 | CC(=O)OC[C@@H](C#N)NC(=O)[C@H](CC(C)C)NC(=O)c1cccc(Oc2ccccc2)c1 | 1.71
34 | Brc1ccc(-c2nc3c(c(N4CCOCC4)n2)CCCC3)cc1 | -9.26
35 | O=C(NCCOc1ccc2ccccc2c1)c1cccnc1 | 2.57
36 | O=C(c1cc2c(s1)-c1ccccc1S(=O)(=O)C2)N1CCC(Cc2ccccc2)CC1 | -2.39
37 | N#Cc1cccc(NC(=O)c2cccc(C(F)(F)F)c2)c1 | 5.08
38 | COc1ccc(C)cc1NC(=O)CN(c1ccccc1C)S(=O)(=O)c1ccccc1 | -10.5
39 | O=C1NC(=O)/C(=C\c2cccs2)N1 | -1.48
40 | Cc1ccc2c(c1Br)C1(C(=O)N2)C(C#N)=C(N)Oc2[nH]nc(-c3ccc4c(c3)OCO4)c21 (centres unmarked) | 2.32
41 | Cc1[nH]c2ccccc2c1SCCNC(=O)C12CC3CC(CC(C3)C1)C2 | 4.69
42 | Nc1c(C(=O)O)sc2nc(-c3ccccc3)cc(-c3ccccc3)c12 | 10.8
43 | CC1=C(C(=O)OCCCc2ccccc2)C(c2ccccc2F)CC(=O)N1 (centres unmarked) | 3.87
44 | Cc1ccc(S(=O)(=O)NCC(=O)N2CCOCC2)cc1 | -3.41

Row | Structure (SMILES) | % Inhibition @ 10 uM [%]
45 | O=c1c(NCc2ccccc2Cl)c(-c2ccc3c(c2)CCCC3)c1=O | 2.94
46 | Cc1ccccc1CNS(=O)(=O)c1cc(C(=O)O)ccc1F | -2.5
47 | COc1ccc(CCNC(=O)c2cc3sc(Cl)cc3n2C)cc1OC | -4.85
48 | COC(=O)CN(C)CP(C)(=O)OC(C)C (centres unmarked) | -5.23
49 | CC1CCN(CCC(=O)c2ccc(O)cc2)CC1 | -3.74
50 | O=C(NC(c1ccccc1)c1ccccc1)c1cccs1 | 1.83
51 | COc1ccc2c(C)c(C(=O)OCCN(C)C)oc2c1 | 3.34
52 | O=C(NCCCN1CCCCC1)c1cc(-c2ccc(Cl)s2)nc2ccccc12 | -4.06
53 | NC(=O)COc1ccccc1OCC(N)=O | -1.29
54 | O=C1CCC(c2ccccc2)=NN1Cc1c(F)cccc1Cl | -2.72
55 | O=C(NCc1cccc(C(F)(F)F)c1)C1CCN(c2ncccn2)CC1 | -2.71
56 | CCCOc1ccc(C2C(C(=O)OC)=CN(C(C)C)C=C2C(=O)OC)cc1 | -5.05
57 | COCCCN1C(=O)c2[nH]nc(-c3ccccc3O)c2C1c1ccc(C(C)(C)C)cc1 (centres unmarked) | 2.02
58 | O=C(Cn1c(=O)c2cccn2c2cccnc21)NCCN1CCCC1 | -4.76
59 | Cc1cccc2oc(Cc3nc4c(C)cccc4o3)nc12 | -3.25
60 | O=C1NC23CCCCC2C(/C1=C(O)\C=C\c1ccc(Cl)cc1)c1ccccc1O3 (centres unmarked) | 0.907
61 | CCOc1ccccc1N1CCN(C(=O)c2ccc(Br)cc2)CC1 | 1.83
62 | O=C(CS(=O)(=O)Cc1ccccc1)Nc1ccc(S(=O)(=O)Nc2nccs2)cc1 | -1.06
63 | COc1cc(CNCc2ccncc2)ccc1OCC(N)=O | 0.032
64 | CCN(C(=O)COc1ccccc1)c1nnc(-c2ccc(Cl)cc2)s1 | -1.81
65 | COCCNC(=O)c1ccc(Cn2c(SCc3cccc(OC)c3)nc3ccncc32)cc1 | -3.34
